Data reported in the supplement of paper PMC3334620.
In all, about 33,000 sequences were measured (“E-score (-0.5 to 0.5)”: median about -0.035, highest 2% from about 0.35 on). Some of the results follow.

Biological target: T1, Pdr3 (UniProt P33200)
T1 sequence: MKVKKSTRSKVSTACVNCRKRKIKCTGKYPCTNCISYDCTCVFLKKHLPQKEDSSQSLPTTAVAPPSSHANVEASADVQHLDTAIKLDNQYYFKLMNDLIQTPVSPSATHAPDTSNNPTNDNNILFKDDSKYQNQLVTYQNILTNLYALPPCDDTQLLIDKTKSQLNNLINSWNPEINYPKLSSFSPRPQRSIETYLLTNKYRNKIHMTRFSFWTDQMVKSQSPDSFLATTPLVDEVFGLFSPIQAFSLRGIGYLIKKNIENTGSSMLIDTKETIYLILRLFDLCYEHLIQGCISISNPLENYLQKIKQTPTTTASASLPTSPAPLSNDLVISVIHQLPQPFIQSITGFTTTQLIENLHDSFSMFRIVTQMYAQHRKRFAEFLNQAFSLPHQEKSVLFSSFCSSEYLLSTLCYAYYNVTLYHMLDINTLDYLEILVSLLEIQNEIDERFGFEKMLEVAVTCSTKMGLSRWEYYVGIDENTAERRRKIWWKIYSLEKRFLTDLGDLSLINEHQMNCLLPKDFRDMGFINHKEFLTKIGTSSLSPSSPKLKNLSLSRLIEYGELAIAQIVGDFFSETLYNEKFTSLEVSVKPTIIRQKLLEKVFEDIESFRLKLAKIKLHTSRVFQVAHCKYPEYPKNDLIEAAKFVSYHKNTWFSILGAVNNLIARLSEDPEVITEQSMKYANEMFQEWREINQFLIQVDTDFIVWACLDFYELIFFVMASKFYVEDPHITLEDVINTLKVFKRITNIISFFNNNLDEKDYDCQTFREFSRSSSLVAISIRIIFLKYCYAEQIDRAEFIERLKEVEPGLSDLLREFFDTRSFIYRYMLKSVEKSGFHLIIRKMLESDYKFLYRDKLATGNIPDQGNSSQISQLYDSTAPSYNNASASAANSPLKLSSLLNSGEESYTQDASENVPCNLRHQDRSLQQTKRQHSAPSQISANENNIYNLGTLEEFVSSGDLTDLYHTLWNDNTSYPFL
Assay: PBM E-score (8-mer binding enrichment) (E-score (-0.5 to 0.5)); higher = stronger / more preferred TF binding; most listed sequences are background and not binding sites
Settings: protein concentration: 200 nM; construct: GST-full length
In short: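 Yeast transcription factors carrying a GST tag, as full-length proteins or DNA-binding domains, were produced by PURExpress in vitro transcription/translation. About 100-200 nM protein was applied to universal all-10-mer Agilent arrays, double-stranded by primer extension on fresh or once-stripped slides. Bound protein was detected with fluorescent anti-GST, and scans were normalised with masliner. The Universal PBM Analysis Suite gave each ungapped eight-base word, pooled with its reverse complement, an E-score, a modified Wilcoxon-Mann-Whitney statistic.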

Sequence	PBM E-score
GCTGGCCC	-0.119
CTTTACAC	0.0484
AAATCCTC	-0.0269
ATAACTCC	0.042
TCGTTGAA	-0.112
AAGGTACA	-0.274
AAAAGTCA	-0.138
CGCTAAAG	-0.0518
ACTTGTGC	-0.0441
CAAAGAGA	-0.131
CTGGCAGC	-0.136
ACGCGTCC	0.172
AGCATTTA	-0.229
CGGATCCC	0.374
AGACTTGC	-0.243
ACAATGGC	-0.107
GTACTGAA	0.0534
CTGGCCGA	0.161
ACCATGCA	0.144
CAATCATG	-0.189
GATTCGCA	0.0644
GCGAGACA	-0.186

Sequence	PBM E-score
CAATCATC	-0.0327
AGTTCTGG	-0.0246
ACCGCCAT	0.14
AAGCCCAC	-0.0697
CTTCGCCA	0.00407
ACGTCCCG	0.279
GATTACCC	0.187
GATAGGCC	-0.0163
CAAAATCG	0.0231
GACCCGAA	0.198
CCTAAGGC	-0.303
GTCTTCTA	-0.0647
CGCTTTGC	0.0905
AGGCGCAT	0.0526
AGTCACGG	0.188
CTAATTCC	0.234
CACACGCC	0.149
AGGAGGTG	-0.274
ACAAGCTG	-0.0323
CGAGATCC	0.244
CACCTAAA	-0.178
AAGCAGTA	-0.273

Sequence	PBM E-score
CATGGTCA	-0.0253
GCGTAGCC	-0.287
ATCGAGAA	-0.05
AGAAAGGG	-0.246
GGCTAATA	0.0603
CAAGCGCG	0.171
CCCGGCAC	0.154
CCCAAGTA	-0.0962
CTAGCAGA	-0.228
AATCAAGG	0.0734
CTGAGGGA	-0.172
GCAGTTTA	-0.158
GTACGCAA	-0.201
ATTTAAAA	0.205
GTCAAGAA	-0.0491
ATTGTGAC	-0.0378
GGGACCTA	0.0394
CGCACACG	0.0483
AGAGTCTA	-0.418
CGAACCTC	0.0087
ACTGGGCC	-0.108
AACGGTGC	-0.178

Sequence	PBM E-score
CCCAAACC	0.159
CAATAATA	0.124
AAGTGGAA	-0.0995
CAGCCTTA	-0.231
TCATTCAA	-0.00296
GGAGTGAA	0.0992
GTGTCGGA	0.205
TAGAAGCA	-0.304
AGGTGTTG	-0.126
ACCGCACC	0.183
AACCATAA	-0.127
AGCACCGC	0.0178
AGCTGAAG	-0.065
ATTACCGC	0.233
GTCACTAA	-0.0506
AGGCGCGA	0.0925
GCTTCCCC	-0.0508
ATCAACCC	0.208
TCAAGGGA	-0.00064
AGCTCCAA	-0.014
